Results: the supplement of paper PMC10126150
Sequences with one replicate were seen in a single cluster, so their values are uncertain.
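Note: ATP exposure 15 min at 22 °C before imaging.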

Each sequence was assayed on ATP (assay: switch fluorescence ratio, 500 uM ATP over buffer (Cy3 cluster intensity, sum of 5 cycles each) (fold (ratio)); higher = stronger signal-on switching upon ATP binding; sequences stand for … in TCGTCGGCAGCGTCAGATGTGTATAAGAGACAGTTTTTTTTTTTTTTTTTTTTTTTTT…TC). Conditions: aptamer strand: ATP DNA aptamer (quencher-CACCTGGGGGAGTATTGCGGAGGAAGG + anchor), 100 nM annealed; ATP concentration: 500 uM; one replicate.
How it was run: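 For every switch-domain sequence, the fluorescence ratio is the mean of per-cluster values, each being summed target-cycle Cy3 intensity over summed buffer-cycle Cy3 intensity. Clusters outside 100-1000 RFU were excluded. On a modified Illumina MiSeq flow-cell, the Cy3-labelled switching-strand clusters were annealed to 100 nM quencher-labelled ATP aptamer, imaged in selection buffer and then after 15 min with 500 uM ATP at 22 °C. Five such cycles were run, with NaOH stripping and re-annealing between them.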
For TTTTTGCA, the switch fluorescence ratio was 1. Sequence CGCGAGATCA has a switch fluorescence ratio of 1.03. GCTAGAATGA gave a switch fluorescence ratio of 0.982. TCAGGGACTC showed a switch fluorescence ratio of 1. Work on TGGCCGATAC yielded a switch fluorescence ratio of 2.2. CATTGTCCTT showed a switch fluorescence ratio of 1.01. Sequence ACTCTGATAT has a switch fluorescence ratio of 1.16. Work on TGGACTGCGT yielded a switch fluorescence ratio of 0.971. GGGGCTCGTA gave a switch fluorescence ratio of 1.05. In the case of ACGAAGCCGG, the switch fluorescence ratio is reported as 1.1. With CGAACGCTAT the switch fluorescence ratio was 4.24. Work on CTCAGTGTTT yielded a switch fluorescence ratio of 0.981. For GTAGAAAGGG, the switch fluorescence ratio was 1.11. In the case of GACGGGCCGA, the switch fluorescence ratio is reported as 1.07. In the case of CTGACGCGTC, the switch fluorescence ratio is reported as 1.17. With CTATTACGT the switch fluorescence ratio was 0.956. For CCTATTTCTA, the switch fluorescence ratio was 0.997. Work on TGGCAAAACG yielded a switch fluorescence ratio of 1.01. In the case of AGTGCTGCTC, the switch fluorescence ratio is reported as 1.02. GGCCAGGACA showed a switch fluorescence ratio of 1. Work on AAGCCTAGGA yielded a switch fluorescence ratio of 1.02. For AATCGTTACG, the switch fluorescence ratio was 1.06. In the case of TCGACGGAAA, the switch fluorescence ratio is reported as 1.17. TGTGCTAGTC showed a switch fluorescence ratio of 1.08. In the case of TTTGCCTTCG, the switch fluorescence ratio is reported as 1.21. ATGAGTCTCT was tested, and the switch fluorescence ratio was 1.04. TTGACATCAT gave a switch fluorescence ratio of 1.03. Work on TGACCCGCTT yielded a switch fluorescence ratio of 1.49. For CAAAGAGTTG, the switch fluorescence ratio was 1.02. GGGGTAATTA gave a switch fluorescence ratio of 0.985. Work on TTTTGCACTG yielded a switch fluorescence ratio of 1.07. TTGAGGGCAC gave a switch fluorescence ratio of 1.04. AGGCAGGCGA showed a switch fluorescence ratio of 1.04. AGAGTGGCTT was tested, and the switch fluorescence ratio was 0.941. In the case of AACGATTCGT, the switch fluorescence ratio is reported as 1. For GGGTGCCATA, the switch fluorescence ratio was 0.979. In the case of AGTTTAGGTC, the switch fluorescence ratio is reported as 1.01. CTGTTTTATA was tested, and the switch fluorescence ratio was 0.943. For GATTGCCCGC, the switch fluorescence ratio was 1.05. Sequence ATAGCCATTG has a switch fluorescence ratio of 1. GTCGGGGGA showed a switch fluorescence ratio of 0.913. For CCCTGGAGGG, the switch fluorescence ratio was 0.964. CCGCGCTCAG was tested, and the switch fluorescence ratio was 1.77. CCTTAACTGT was tested, and the switch fluorescence ratio was 1.01. CAGTAGCGT showed a switch fluorescence ratio of 0.969. TAGCATGCCG was tested, and the switch fluorescence ratio was 0.866. Sequence CGTTTACCCA has a switch fluorescence ratio of 1.01. In the case of AGCACGCACG, the switch fluorescence ratio is reported as 1.76. GCAAGCCGCG showed a switch fluorescence ratio of 1.02. With TGTGTGCTCC the switch fluorescence ratio was 0.997. Work on CTAGAATATG yielded a switch fluorescence ratio of 0.99. ATGCGTAGGA showed a switch fluorescence ratio of 1. Work on TTGTCATCGC yielded a switch fluorescence ratio of 0.99. TTAAATCGGG gave a switch fluorescence ratio of 1. With GAACCCTCCT the switch fluorescence ratio was 1.41. GGTGCGTCGT was tested, and the switch fluorescence ratio was 0.945. Sequence CCAGGACTAA has a switch fluorescence ratio of 1.04. With AGTGAAGCTA the switch fluorescence ratio was 0.994. With TGGGCAGGAA the switch fluorescence ratio was 1. Work on ATCAGATCTG yielded a switch fluorescence ratio of 1.01. With GAGTCGGACC the switch fluorescence ratio was 0.987. With CTGAAAAGAG the switch fluorescence ratio was 1.03. CACGATGCGA gave a switch fluorescence ratio of 1.75. For AGGGTGGTTA, the switch fluorescence ratio was 1.02. CACCTGTTCG gave a switch fluorescence ratio of 0.975. CGACACTAAG was tested, and the switch fluorescence ratio was 1.01. TAGGATCATG showed a switch fluorescence ratio of 0.996. GGGCTTTTGA was tested, and the switch fluorescence ratio was 0.984. CGCTCCACCC gave a switch fluorescence ratio of 1.36. Work on AAAAGCGGTT yielded a switch fluorescence ratio of 0.971. With TCTCGCCTGA the switch fluorescence ratio was 1.02. TTTTGTCAAC showed a switch fluorescence ratio of 1.01. CAGGACCCAG gave a switch fluorescence ratio of 0.984. GGGTTTGGCC gave a switch fluorescence ratio of 0.981. Work on TTTATGTATC yielded a switch fluorescence ratio of 1.04. AGCATACGGC gave a switch fluorescence ratio of 1.18. Sequence GTTGTAAGCC has a switch fluorescence ratio of 1. Work on CTATAAACTT yielded a switch fluorescence ratio of 1.03. For GTCGGGGATG, the switch fluorescence ratio was 0.99. AGGTTGGGCC gave a switch fluorescence ratio of 1.01. Work on CTAATTTTAC yielded a switch fluorescence ratio of 0.998. CATTGGGGGC showed a switch fluorescence ratio of 1.01. CTTCATTGTA showed a switch fluorescence ratio of 1. Work on CTGAGAGGGG yielded a switch fluorescence ratio of 0.97. TGAGTCACAG showed a switch fluorescence ratio of 1.02. CCTGACAGGC was tested, and the switch fluorescence ratio was 1.02. GTCGGTCGGC gave a switch fluorescence ratio of 0.911. GTTTTTCCGC was tested, and the switch fluorescence ratio was 1.26. Sequence TAGAACTGAA has a switch fluorescence ratio of 1.07. GATCTTTAAC was tested, and the switch fluorescence ratio was 0.996. In the case of GCAGGGACGG, the switch fluorescence ratio is reported as 0.995. TTAGACTGG showed a switch fluorescence ratio of 1.02. For ATAAACAAGT, the switch fluorescence ratio was 1.03. TTATAGATTT showed a switch fluorescence ratio of 1.02. For GCGGTTGACG, the switch fluorescence ratio was 1.12. For CATGATTTAC, the switch fluorescence ratio was 1.02. For TTTGTCCTAT, the switch fluorescence ratio was 1.03. With ACGACTGGTT the switch fluorescence ratio was 1.04. Work on TTAGTTACC yielded a switch fluorescence ratio of 1.14. Work on CTAATACTGC yielded a switch fluorescence ratio of 1.17. CTGCTCCGGG showed a switch fluorescence ratio of 1.5. Work on TATCAGAAAA yielded a switch fluorescence ratio of 0.96. For GCCGCGAGGA, the switch fluorescence ratio was 1.16. Sequence TGGCTAGGTC has a switch fluorescence ratio of 1.01. In the case of ATTTTATGTC, the switch fluorescence ratio is reported as 1.01. In the case of GGCCAGTGTC, the switch fluorescence ratio is reported as 1.04. In the case of TGATACGATA, the switch fluorescence ratio is reported as 1.05. GTTGGATTTT was tested, and the switch fluorescence ratio was 1.04. For TACAGATGCC, the switch fluorescence ratio was 1.01. Sequence ACATCGGCCA has a switch fluorescence ratio of 1.03. GGAAACGCTG gave a switch fluorescence ratio of 1.06. CGACGTGTCC was tested, and the switch fluorescence ratio was 1.09. Work on GGTTGGCAAA yielded a switch fluorescence ratio of 0.959. GCGGTTATTT gave a switch fluorescence ratio of 0.966. Sequence CGTGTAAATT has a switch fluorescence ratio of 0.978. For GTGCGTCTGG, the switch fluorescence ratio was 1.02. Sequence ATGAGGTGGA has a switch fluorescence ratio of 1.04. Sequence CATAGGTGGT has a switch fluorescence ratio of 0.975. For AAAAGGCAGT, the switch fluorescence ratio was 0.976. CGCCAATCTT was tested, and the switch fluorescence ratio was 1.05. With CAGATGATTT the switch fluorescence ratio was 0.943. With TGTTCTTGC the switch fluorescence ratio was 0.948. GCCCCTAGAA was tested, and the switch fluorescence ratio was 1.04. With AACGTTTTAC the switch fluorescence ratio was 1.12. GGAGCATCGG gave a switch fluorescence ratio of 1.06. AAAATTTGAG was tested, and the switch fluorescence ratio was 1. Sequence GTAACACCCG has a switch fluorescence ratio of 0.981. In the case of CAATGCCGCT, the switch fluorescence ratio is reported as 1. For CTAGTCAGTG, the switch fluorescence ratio was 0.954. For CGCCTGATGG, the switch fluorescence ratio was 1.01. With AATGCGTAGC the switch fluorescence ratio was 0.924. CCCCTTAGGG was tested, and the switch fluorescence ratio was 1.93. TAGATTCCAG gave a switch fluorescence ratio of 0.995. AGCAGGCGGT gave a switch fluorescence ratio of 1.04. Sequence AGGGCTATAA has a switch fluorescence ratio of 1.24. TGGGTCGTAA gave a switch fluorescence ratio of 1.01. Work on GCTTGGTTCG yielded a switch fluorescence ratio of 0.987. In the case of GCTAGGGGCA, the switch fluorescence ratio is reported as 1.08. Sequence CGGAGTTCGC has a switch fluorescence ratio of 1.09. Work on TACGGGAC yielded a switch fluorescence ratio of 1.29. Sequence CATGACCCGG has a switch fluorescence ratio of 1.02. GATAAATGCC showed a switch fluorescence ratio of 1.01. With GAATGTAACT the switch fluorescence ratio was 1.02. Work on GGCAGGGTTG yielded a switch fluorescence ratio of 0.98. With ATCGGATAAC the switch fluorescence ratio was 0.998. CAACTTAGAG gave a switch fluorescence ratio of 1.02. With TAACTAGTCC the switch fluorescence ratio was 0.976. CGTAGGAGTA gave a switch fluorescence ratio of 0.988. In the case of GACGAATCGC, the switch fluorescence ratio is reported as 1.23. Work on GAGCCGTTAG yielded a switch fluorescence ratio of 0.96. Sequence GCTCTTTAT has a switch fluorescence ratio of 1.06. Sequence CAAAGTGTTT has a switch fluorescence ratio of 0.957. Work on CTAAGGATGG yielded a switch fluorescence ratio of 1.01. Sequence ACAGTCACGC has a switch fluorescence ratio of 1.25. With TTCTCTACTG the switch fluorescence ratio was 1.02. Work on CGGGTTACCT yielded a switch fluorescence ratio of 1.04. In the case of ATCTTAAGCT, the switch fluorescence ratio is reported as 0.981. GATCCACAAG showed a switch fluorescence ratio of 1.02. Work on GGGGATCTCG yielded a switch fluorescence ratio of 1.01. TAGGCGCAAC was tested, and the switch fluorescence ratio was 1.53. In the case of TCGTGAATCA, the switch fluorescence ratio is reported as 1.02. Work on TTGATGTACT yielded a switch fluorescence ratio of 1.04. In the case of GGGACCTCGA, the switch fluorescence ratio is reported as 0.989. GGGAACAAAT showed a switch fluorescence ratio of 1.02. Sequence TTCGTATA has a switch fluorescence ratio of 1.01. Work on GCTTGGATCA yielded a switch fluorescence ratio of 1.04. In the case of GGCAATGAGC, the switch fluorescence ratio is reported as 1.07. GCGGTATGGC showed a switch fluorescence ratio of 1. Sequence AGCGTAGTC has a switch fluorescence ratio of 0.969. AAGGTGGGA showed a switch fluorescence ratio of 1.02. TCGCTATATT gave a switch fluorescence ratio of 1.79. GTGGTCAGGT was tested, and the switch fluorescence ratio was 0.982. For AGACTCATAC, the switch fluorescence ratio was 1.28. For GAGCGCCGTC, the switch fluorescence ratio was 1.04. Sequence AGACCTACGC has a switch fluorescence ratio of 1.59. In the case of TAGGGAGAAC, the switch fluorescence ratio is reported as 1.05. Sequence CGGCGCAGGT has a switch fluorescence ratio of 1.09. In the case of GGAAAGGGCA, the switch fluorescence ratio is reported as 1. Sequence TTTGACTTGG has a switch fluorescence ratio of 1.05. GTACGTCGTC gave a switch fluorescence ratio of 0.979. GTTATGGAGC showed a switch fluorescence ratio of 0.976. In the case of GACATAATGG, the switch fluorescence ratio is reported as 1.01. Work on CCTGAACTGC yielded a switch fluorescence ratio of 1.41. Work on CTAAAATTAG yielded a switch fluorescence ratio of 0.998. For AGCTAGAGTT, the switch fluorescence ratio was 0.997. ACAGGTTCG gave a switch fluorescence ratio of 1.03. With CGGATGGGC the switch fluorescence ratio was 0.961. In the case of GATTGTATTA, the switch fluorescence ratio is reported as 1.01. Work on TTCCTAATAG yielded a switch fluorescence ratio of 1.09. In the case of AATCCATCAG, the switch fluorescence ratio is reported as 1.02. Work on CAAATTGTGT yielded a switch fluorescence ratio of 0.966. Sequence GTAATAACC has a switch fluorescence ratio of 1.02. CTAAAAAGAT showed a switch fluorescence ratio of 1. Sequence CACGTGAGAA has a switch fluorescence ratio of 0.983. For CCGGTGACAT, the switch fluorescence ratio was 1.23. GAGTATCAT was tested, and the switch fluorescence ratio was 0.98. TGCAAGACAA gave a switch fluorescence ratio of 1.17. ATTGATAGTG was tested, and the switch fluorescence ratio was 0.96. Sequence CCGTGATGCA has a switch fluorescence ratio of 1.05. Sequence TAGCTATTTC has a switch fluorescence ratio of 1.07.
